# From article PMC7909954 (eLife, 2021)
# Assays:
# C57BL/6J mice [1] = test system: C57BL/6J mice
# C57BL/6J mice [2] = conditions: icv; MP1207 and MP1208 up to 100 nmol, morphine 30 nmol, U50,488h 100 nmol
# C57BL/6J mice [3] = test: Locomotor activity (ambulations), CLAMS
compound,measurement,setting,value
"NCc1cccc(C(=O)N[C@@H]2CCC3C4Cc5ccc(O)c6c5[C@@]3(CCN4CC3CC3)C2O6)c1 (stereo partly drawn) [MP1207, 3-(Aminomethyl)-N-((7R,12bS)−3-(cyclopropylmethyl)−9-hydroxy-2,3,4,4a,5,6,7,7a-octahydro-1H-4,12-methanobenzofuro[3,2-e]isoquinolin-7-yl)benzamide]",respiratory rate vs vehicle/saline,C57BL/6J mice [1]; 30 nmol icv,increased breathing rates
same,respiratory rate vs vehicle/saline,C57BL/6J mice [1]; 100 nmol icv,increased respiration at 120–160 min
same,conditioned place preference / aversion,C57BL/6J mice [2],failed to show either rewarding or aversive behavior
same,ambulation (locomotor effect),C57BL/6J mice [3]; 100 nmol icv,did not
"N=C(N)NCc1cccc(C(=O)N[C@@H]2CCC3C4Cc5ccc(O)c6c5[C@@]3(CCN4CC3CC3)C2O6)c1 (stereo partly drawn) [MP1208, N-((7R,12bS)−3-(Cyclopropylmethyl)−9-hydroxy-2,3,4,4a,5,6,7,7a-octahydro-1H-4,12-methanobenzofuro[3,2-e]isoquinolin-7-yl)−3-(guanidinomethyl)benzamide]",respiratory rate vs vehicle,C57BL/6J mice [1]; 35 nmol icv,increased respiratory rate
same,conditioned place preference / aversion,C57BL/6J mice [2],failed to show either rewarding or aversive behavior
"CN1CC[C@]23c4c5ccc(O)c4O[C@H]2[C@@H](O)C=C[C@H]3[C@H]1C5 [Morphine, reference compound]",respiratory rate vs vehicle/saline,C57BL/6J mice [1]; 30 nmol icv,respiratory depression
same,respiratory rate vs vehicle/saline,C57BL/6J mice [1]; 100 nmol icv,respiratory depression
same,respiratory rate vs saline,C57BL/6J mice [1]; 30 mg/kg IP,depressed respiration
same,conditioned place preference / aversion,C57BL/6J mice [2],place preference
same,ambulation (locomotor effect),C57BL/6J mice [3]; 30 nmol icv,significant hyperlocomotion
same,ambulation (locomotor effect),C57BL/6J mice [3]; 100 nmol icv,significantly different

# Where two headings read alike, the source gives them in different places.
